Test results from PubChem BioAssay AID651820 (National Center for Advancing Translational Sciences (NCATS), 2012).
The campaign covered roughly 340,000 compounds. About 12,000 (3.5%) were called active. Inconclusive results, whose numbers are uncertain, are shown with a selection of clear calls. Calls come from the whole dose curve; as a rule, active = well fitted inhibition curve with a large enough effect; inconclusive = small, poorly fitted or top-dose-only effect, or another doubt; inactive = no such curve, though single readings can be large or run the other way. Potencies of inconclusive entries are left out as doubtful fits.

Assay: qHTS Assay for Inhibitors of Hepatitis C Virus (HCV)
Settings: Huh7.5.1 HCVcc-Cre (HCVcc is cell-culture hepatitis C virus) infection, luciferase reporter, 44 h; series mostly up to 41.8 µM
Procedure, shortened: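 Infectious HCVcc-Cre (~0.5 moi) was added to cells just after compound, with cells seeded 4 h earlier at 1,000 per well. Luciferase activity after 44 h culture reported infection; substrate was incubated 15 min at room temperature before reading.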
Potency is the fitted concentration of half-maximal effect; tags give direction and shape of the fitted curve.

Structure (SMILES) | Potency
CC1Cc2ccccc2N1CC(=O)Nc1ccc(N2CCOCC2)cc1 (configuration not stated) | inactive
O=C1/C(=C/c2ccc(N3CCCC3)cc2)NC(=S)N1C1CC1 | inconclusive [inhibitor, full curve, poor fit]
CCSc1nnc(NC(=O)c2nc(S(=O)(=O)Cc3ccc(F)cc3)ncc2Cl)s1 | inconclusive [inhibitor, single point]
CCN1C(=O)[C@H]2[C@@H](c3ccc(-c4cccc(Cl)c4)c(OC)c3)N3CCC[C@@]3(C(=O)OC)[C@H]2C1=O | inconclusive [inhibitor, partial curve]
O=C(NC1CCN(Cc2ccccc2)CC1)C1CCN(c2nnc(-n3cccc3)s2)CC1 | inconclusive [inhibitor, single point]
CN(C)CC1CCC/C(=C\c2ccc(OC(=O)c3ccc(Cl)cc3)cc2)C1=O (configuration not stated) | active: 11.2 µM
COc1ccc(/C=C2\SC(=O)N(CCNC(=O)C3CSC4(C)CCC(=O)N34)C2=O)cc1 (configuration not stated) | inconclusive [inhibitor, single point]
O=C(c1ccc(Cl)cc1)c1c[nH]c(C(=O)C(Cl)(Cl)Cl)c1 | inconclusive [inhibitor, single point]
COc1ccc(OCCn2c(N)nc3ccccc32)cc1 | inconclusive [inhibitor, single point]
COc1ccc(CNS(=O)(=O)NCc2ccc(OC)c(OC)c2)cc1OC | inconclusive [inhibitor, single point]
CCOc1ccc(CN2CCCC(C(=O)c3ccccc3OC)C2)cc1 (configuration not stated) | inconclusive [inhibitor, partial curve]
CCc1nn(C(CC)C(=O)NCC(C)c2ccccc2)c(=O)c2cc3occc3n12 (configuration not stated) | inconclusive [inhibitor, partial curve]
COc1cccc(-n2c(C)cc(/C=C3\C(=N)N4N=C(CC(=O)N5CCOCC5)SC4=NC3=O)c2C)c1 | inactive
Cc1cc(Cl)ccc1NC(=O)CN1CCC(C(O)(c2ccccc2)c2ccccc2)CC1 | inconclusive [inhibitor, single point]
CCOCCn1c(=NC(=O)c2ccc(S(=O)(=O)N3CCOCC3)cc2)sc2cc(S(N)(=O)=O)ccc21 | active: 22.4 µM
Cc1ccccc1OCc1nnc(SCC(=O)Nc2ccc(N3CCOCC3)c(Cl)c2)n1C | inactive
Cc1cc(C(=O)COC(=O)c2n[nH]c3ccccc23)c(C)n1CC1CCCO1 (configuration not stated) | inconclusive [inhibitor, partial curve]
